Laboratory results reported in ChEMBL document CHEMBL4888484, “Replenishing the malaria drug discovery pipeline: Screening and hit evaluation of the MMV Hit Generation Library 1 (HGL1) against asexual blood stage Plasmodium falciparum ,using a nano luciferase reporter read-out” (2022).
Out of some 150,000 compounds screened, about 540 (0.36%) showed an effect of 50% or more. The list shows a part of the results.

test system: Plasmodium falciparum; experiment: Primary screen in NF54 nanoGlo assay, in single point, at 2uM, 72h; a lower Z score goes with more inhibition; type: functional, Erythrocyte; conditions: timepoint 72 hour

SMILES | % Inhibition | Z score
CC(O)CC(C)(C)CNC(=O)C(C(C)C)N1CCCCC1 (configuration not stated) | 30% | -3.43
Cn1cc(CCC(=O)NC[C@H]2CCCO2)c2ccccc21 | 7% | -0.85
CC12CCC(C(N)=O)(C(=O)C1=O)C2(C)C (configuration not stated) | 1% | -0.14
CC(C)N1CCC[C@H](CNC(=O)c2coc(COc3cccc(F)c3F)n2)C1 | -9% | 1.24
CC1CN(S(=O)(=O)NCCc2cn3ccccc3n2)CC(C)O1 (configuration not stated) | -6% | 1.26
O=C(CCn1cccn1)N1CCN(Cc2ccc(Cl)s2)CC1 | -1% | 0.12
Cc1nc(C2(C)CCN(C(=O)c3noc(C)c3Cn3cc(Cl)cn3)CC2)no1 | -8% | 1.06
CC1CCN(C(=O)C[C@@H]2O[C@H](CNS(=O)(=O)c3ccccc3)[C@@H](O)[C@H]2O)CC1 | 30% | -3.4
O=C(c1csc(C(F)(F)F)n1)N1CC(O)CC1c1ccccc1 (configuration not stated) | -5% | 0.74
Cc1nc2cc(OCc3cc(C(=O)N(C)[C@H]4CCOC4)no3)ccc2s1 | -22% | 2.35
CCc1ccccc1NC(=O)c1ccc(-c2c(-c3ccc(F)cc3)ncn2C2CCCCC2)o1 | 6% | -0.89
Cc1ccc(Cl)cc1Nc1nc(Nc2cc(Cl)ccc2C)nc(N2CCN(C)CC2)n1 | 2% | -0.35
COc1cc2c(cc1CN1CC[C@H](Cc3ccc(CO)cc3)C1)OCCCO2 | -18% | 1.74
O=C(NCc1ccc(OCc2cccnc2)cc1)c1nn(-c2ccccc2)c(=O)c2ccccc12 | 4% | -0.48
O=C(CCOCC1CCCO1)Nc1ccnn1C1CCN(Cc2ccccc2)C1 (configuration not stated) | -11% | 1.42
COc1cc(C(=O)NCC[C@H]2CCOC2)ccn1 | -2% | 0.22
O=C(NC1CCCC2CN(Cc3ccccc3)CC21)C1(O)CCC1 (configuration not stated) | -6% | 0.48
Cn1cc(CN2CCCN(C(=O)Nc3nnc(C(C)(C)c4ccccc4)s3)CC2)cn1 | -8% | 1.71
CC(C)C(=O)N[C@H]1CC12CCN(C(=O)c1cccn1C)CC2 | -17% | 3.09
O=C(Nc1ccc2c(c1)OCO2)c1ccc(=O)[nH]c1 | 2% | -0.13
CNS(=O)(=O)c1ccc(-c2ccc3c(c2)CCOC3)s1 | -4% | 0.69

SMILES | % Inhibition | Z score
Cc1ccn2cc(C(=O)N3CCCC(N4C(C)CCC4C)C3)nc2c1 (configuration not stated) | -10% | 1.21
COc1ccc(CC(=N)Nc2cc3cc(OC)c(OC)cc3c(Cc3ccc(OC)c(OC)c3)n2)cc1OC | 85% | -9.78
CC1(C)CO[C@@H](CS(=O)(=O)NCCc2cn[nH]c2)C1 | -11% | 1.2
Cc1cc(F)c(C(=O)N2CC[C@H](N3CC=CC3)C2)cc1F | 30% | -3.38
COc1cc(OC)cc(C(=O)N2C[C@H](COc3ccncc3)C3(CCOCC3)C2)c1 | -13% | 1.67
COc1cc(C(=O)NC[C@H]2CCCN3CCCC[C@@H]23)cc(OC)c1OC | 0% | -0.01
CCN(C(=O)[C@H]1CC1(C)C)c1ccccc1S(=O)(=O)CC | -9% | 1.29
CCS(=O)(=O)N1CCN(CC(=O)Nc2nn(Cc3ccccc3)cc2Cl)CC1 | -10% | 1.22
C[C@H](NC(=O)N1CC(c2ccncc2)C1)c1cnn(C)c1 | 6% | -1.13
CCCCc1nc(C)cc(NCCNC(=O)[C@@H]2CCCCO2)n1 | 1% | -0.16
Cc1ccoc1C(=O)NC1CCN(C(C(=O)O)c2ccccc2)C1=O (configuration not stated) | -4% | 0.35
O=C(O)[C@H]1CCN(C(=O)NCCc2cccc(-c3ccccc3)c2)C1 | -14% | 1.3
CC(=O)N1CCC[C@H]1C(=O)NC(C)(C)c1nc2ccccc2n1C | -11% | 1.33
CCOC(=O)N1CCc2c(nc(-c3ccc(F)cc3)n(CC(=O)Nc3cc(Cl)ccc3C)c2=O)C1 | 33% | -3.77
COc1ccc2c(ccn2CC(=O)N2CCC(NC(=O)OC(C)(C)C)CC2C)c1 (configuration not stated) | -6% | 0.83
COc1ccc(-c2nc(NC3CCCCC3)nc3nn(Cc4ccccc4)c(N)c23)c(F)c1 | -17% | 1.98
C[C@@H](CCNc1nc(-c2ccncc2)nc2c1CCNCC2)n1ccnc1 | 13% | -1.64
CC1=C(CN2C[C@@H]3NCCO[C@H]3C2)C(C)(C)CCC1 | 3% | -0.53
C[C@@H]1CC=CC[C@H]1C(=O)N1CC(C2CCC2)C1 | -9% | 1.41
CCc1ccc(S(=O)(=O)N2CCC3(CC2)N=C(c2ccc(C)c(C)c2)C(=O)N3)cc1 | -6% | 0.8
O=C(CN1CCCC1)Nc1cccc(-c2nc3ccccc3nc2O)c1 | -8% | 1.06

SMILES | % Inhibition | Z score
COc1cccc(-c2nc(Cn3c(=O)c4c(C)cc(C)nc4n(-c4ccccc4)c3=O)c(C)o2)c1OC | -4% | 0.53
O=C(CC(F)(F)F)NCC(=O)c1cccc2ccccc12 | -8% | 1.27
CC[C@H](C)NC(=O)CCc1n[nH]c(-c2ccc(OCC(C)C)cc2)nc1=O | -4% | 0.55
CCc1ccc(CNc2cccnc2OC(C)C)o1 | -3% | 0.44
Cc1cccc(N2CCN(c3ccc(NS(=O)(=O)c4cccc(C)c4)cc3C(=O)O)C[C@@H]2C)c1 | 0% | -0.02
C[C@H]1C(=O)NCCN1C(=O)OC(C)(C)C | 4% | -0.85
CCOC(=O)N1CC[C@H](N2CCn3nc(CNC(=O)C4CCC4)cc3C2)C1 | -2% | 0.41
Cc1ccc(S(=O)(=O)NC2CCN(c3ccccc3C(=O)N3CCN(C4CCCCCC4)CC3)CC2)cc1 | -5% | 0.83
COCC1(c2nc(C3CC3)nn2-c2ccccn2)CCC1 | 21% | -2.71
O=C(c1n[nH]cc1Cl)N1CCC[C@H](c2[nH]ncc2-c2ccccc2)C1 | -1% | 0.13
CC[C@@H](C(=O)N1CCN(c2ccc(NC(=O)CC(C)C)cc2C(=O)NCc2ccc(F)cc2)CC1)c1ccccc1 | 11% | -1.91
N#Cc1c(N)nc2c3c(cc(-c4ccccc4)nc13)-c1ccccc1O2 | 17% | -1.99
O=C(Cn1nnnc1CN1CCCCCC1)N1CCc2ccccc2C1 | -10% | 1.66
C[C@]1(O)C[C@@H](Nc2nccnc2C#N)C1 | -10% | 1.31
N#Cc1ccc(Nc2ccc3c(c2)OCCO3)nc1 | -3% | 0.66
C[C@@H](CN1CCc2ccccc2C1)NC(=O)c1cnc2c(c1)CCCC2 | -3% | 0.47
O=C(NCCCn1c(-c2ccncc2)nc2cccnc21)Nc1ccccc1 | -31% | 2.69
CC(C)c1cc([C@@H]2CCCN2C(=O)c2cccc(F)c2)on1 | -10% | 1.4
COCCCOC1CN(C(=O)Nc2cccc(OCc3ccc(F)cc3)c2)C1 | 2% | -0.24
Cc1c(CN2CC[C@H](N3CCN(C)CC3)[C@H](CCC(=O)O)C2)[nH]c2ccccc12 | -4% | 0.69
Cc1nnc(CCCOc2cccc(C(C)(C)C)c2)o1 | 2% | -0.39

SMILES | % Inhibition | Z score
CCCCC[C@H](C)CC(=O)N(C)Cc1nnc2n1CCN(C)C2=O | 2% | -0.27
CCN(CCCNC(=O)CCNC(=O)c1cccc(C)c1)C(=O)OC(C)(C)C | -2% | 0.46
O=C(NC[C@H]1CCCO1)c1cc2n(n1)CCN(Cc1ccccc1Cl)C2=O | -9% | 1.34
Cc1cccc(NC(=O)C2=NCCCN2)c1C | -8% | 0.91
Cc1ccc(C)c(CN2CC[C@@H]3CN(S(C)(=O)=O)[C@@H]3C2)c1 | -9% | 1.22
O=C(CCS(=O)(=O)c1ccccc1Cl)Nc1ccc(N2CCCCC2)cc1 | -16% | 2.95
Cc1cnc(NC(=O)[C@@H](C)C(C)(F)F)o1 | -23% | 2.65
O=C1C[C@]2(C(=O)N(Cc3ccccc3F)c3ccccc32)c2cn[nH]c2N1 | -7% | 0.74
CC(C)(C)OC(=O)N1CCOc2c(cccc2C(=O)O)C1 | -6% | 0.87
OCC1(C(F)(F)F)CCN(Cc2nnc3n2CCCC3)CC1 | -6% | 0.59
Cc1nc(COC(=O)Cc2ccc(C(N)=O)cc2)oc1C | 7% | -1.03
O=C(c1ccccc1)N(c1c(Cl)c(Cl)c(O)c(Cl)c1Cl)S(=O)(=O)c1ccccc1 | 2% | -0.31
C#CCCCCC(=O)N(C)C1(C(N)=O)CCCC1 | -20% | 1.72
C=CCNC(=O)N[C@H]1CO[C@H]2[C@@H]1OC[C@@H]2Nc1nccc(-c2ccc(OC)cc2)n1 | -11% | 1.66
COc1cccc(CNC(=O)[C@H]2CCCN(S(=O)(=O)c3c(C)[nH]c(=O)[nH]c3=O)C2)c1 | -5% | 0.72
CS(=O)(=O)c1ccc(-c2cc(F)cc3sc(N)nc23)cc1 | 2% | -0.31
O=C(Nc1ccc2[nH]ncc2c1)N1CC[C@@H](O)C1 | -23% | 2.27
CCOC(=O)C(=O)[C@H](C#N)c1ccccc1 | -8% | 0.92
